# Test results as given in PubChem BioAssay AID504332 (National Center for Advancing Translational Sciences (NCATS), 2011).
# The campaign covered roughly 350,000 compounds. About 31,000 (8.9%) were called active. The inconclusive results got no clear call from the source; some entries with a clear call stand among them for comparison. Calls come from the whole dose curve; as a rule, active = well fitted inhibition curve with a large enough effect; inconclusive = small, poorly fitted or top-dose-only effect; inactive = no such curve, though single readings can be large or run the other way. A potency beside an inconclusive call is a rough fit, not a confirmed value.
# Target: Histone-lysine N-methyltransferase EHMT2 (Homo sapiens) (UniProt Q96KQ7)
# Sequence of UniProt Q96KQ7 (Q96KQ7 whole entry, looked up): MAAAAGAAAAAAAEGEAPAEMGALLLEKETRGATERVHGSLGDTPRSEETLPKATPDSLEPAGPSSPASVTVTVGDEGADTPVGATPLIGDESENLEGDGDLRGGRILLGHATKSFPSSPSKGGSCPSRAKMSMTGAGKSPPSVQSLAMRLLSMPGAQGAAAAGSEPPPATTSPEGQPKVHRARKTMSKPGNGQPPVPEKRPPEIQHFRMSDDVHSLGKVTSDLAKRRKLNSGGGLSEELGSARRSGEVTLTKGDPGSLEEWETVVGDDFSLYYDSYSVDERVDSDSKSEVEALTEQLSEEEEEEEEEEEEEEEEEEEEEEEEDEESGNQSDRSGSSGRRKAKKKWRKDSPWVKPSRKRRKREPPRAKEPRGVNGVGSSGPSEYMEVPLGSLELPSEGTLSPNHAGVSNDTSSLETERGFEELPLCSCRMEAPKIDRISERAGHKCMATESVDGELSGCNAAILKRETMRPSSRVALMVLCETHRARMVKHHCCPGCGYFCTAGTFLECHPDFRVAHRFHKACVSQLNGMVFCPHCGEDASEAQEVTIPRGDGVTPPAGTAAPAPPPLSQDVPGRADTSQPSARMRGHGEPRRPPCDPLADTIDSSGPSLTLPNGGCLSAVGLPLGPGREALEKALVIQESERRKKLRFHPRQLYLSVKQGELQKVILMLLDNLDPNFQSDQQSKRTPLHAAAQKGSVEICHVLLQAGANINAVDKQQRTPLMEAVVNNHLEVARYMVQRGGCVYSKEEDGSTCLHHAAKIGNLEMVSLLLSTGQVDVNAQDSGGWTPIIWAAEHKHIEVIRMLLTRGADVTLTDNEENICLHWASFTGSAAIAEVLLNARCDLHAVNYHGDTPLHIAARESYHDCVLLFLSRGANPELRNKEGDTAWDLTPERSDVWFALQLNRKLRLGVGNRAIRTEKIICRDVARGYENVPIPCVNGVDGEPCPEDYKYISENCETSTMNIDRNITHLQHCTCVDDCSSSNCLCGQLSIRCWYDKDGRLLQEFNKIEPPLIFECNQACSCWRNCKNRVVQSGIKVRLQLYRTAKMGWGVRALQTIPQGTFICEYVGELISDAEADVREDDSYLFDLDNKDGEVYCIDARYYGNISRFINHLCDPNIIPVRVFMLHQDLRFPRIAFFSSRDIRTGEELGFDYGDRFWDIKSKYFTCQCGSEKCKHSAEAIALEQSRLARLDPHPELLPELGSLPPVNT
# Assay: qHTS Assay for Inhibitors of Histone Lysine Methyltransferase G9a; note: nearly all actives have a fitted effect of over 75% in size
# Conditions: G9a H3K9 monomethylation, AlphaScreen, 2 h; activity, negative = inhibition: at 59 µM (top of the series) unless noted
# How it was run: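 Methyltransferase reactions run at room temperature for 2 h (20 nM enzyme, 500 nM biotin-H3K9 peptide, 20 uM SAM) after a 15 min compound preincubation; product detected by AlphaScreen beads and anti-H3K9me1 antibody.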
# % is set by controls: 0 for no effect and ±100 for the full control effect; potency is the fitted concentration of half-maximal effect; tags give direction and shape of the fitted curve.
Compound,Potency,"activity, negative = inhibition"
COC(=O)C1=C(N)Oc2cc(C)n(Cc3ccccc3)c(=O)c2C1c1ccccc1 (centres undefined),"inconclusive: 89.1 µM [inhibitor, single point]",
COc1ccc(S(=O)(=O)NC(C)C(=O)Nc2cccc([N+](=O)[O-])c2)cc1 (centres undefined),active: 50.1 µM,
CCOc1nc(Nc2ccc(F)cc2)nc(N2CCN(c3ccc(OC)cc3)CC2)n1,"inconclusive: 79.4 µM [inhibitor, single point]",
Nc1c(-c2ccc3c(c2)OCCO3)oc2ccccc2c1=O,active: 50.1 µM,
COCCN(C(=O)c1cc(OC)c(OC)c(OC)c1)c1c(N)n(Cc2ccccc2)c(=O)[nH]c1=O,inactive,
O=C1C(NS(=O)(=O)c2cccs2)=C(N2CCOCC2)C(=O)c2ccccc21,active: 39.8 µM,
Cc1[nH]c(=S)n(CC2CCCO2)c1C (centres undefined),"inconclusive: 35.5 µM [inhibitor, single point]",
Cc1ccnc(Nc2nc3ccccc3o2)n1,"inconclusive: 3.55 µM [inhibitor, single point]",
CCc1ccc(NC(=O)c2ccc(Cn3nc(N4CCN(c5ccccc5)CC4)ccc3=O)o2)cc1,"inconclusive: 15.8 µM [inhibitor, partial curve]",
OCC[C@H]1C[C@H](O)[C@@H](O)[C@]2(CCc3ccccc3O2)O1,,inactive: 7.67% [at 2.33 µM]
CSc1nsc2nc(=O)c(/C=C3\C(C)=Nc4ccccc43)c(N)n12,active: 17.8 µM,
Cc1ccc2cc(-c3noc(C4CCCCC4)n3)c(=O)[nH]c2c1,"inconclusive: 89.1 µM [inhibitor, partial curve, poor fit]",
Cc1ccnc(OC(C(=O)O)C(OCc2ccccc2)(c2ccc(F)cc2)c2ccc(F)cc2)n1 (centres undefined),inactive,
COc1ccc(/C=N/NC(=O)c2ccccc2O)cc1CSc1ccccn1,"inconclusive: 89.1 µM [inhibitor, single point]",
Cc1csc(NC(=O)CSc2nc(=O)n(CCN(C)C)c3c2CCCC3)n1,"inconclusive: 89.1 µM [inhibitor, partial curve, poor fit]",
CC(=O)N1N=C(c2ccccc2OC(=O)/C=C/c2ccccc2)CC1c1ccccc1 (centres undefined),inactive,
O=C(c1ccc(Br)cc1)N1CCC(C(=O)N2CCN(Cc3ccccc3)CC2)CC1,"inconclusive: 50.1 µM [inhibitor, partial curve, poor fit]",
CCCn1c2ccccc2c2cnn(CC(=O)NCCCN(CC)c3ccccc3)c(=O)c21,"inconclusive: 3.55 µM [inhibitor, full curve]",
O=C(Nc1cccc2cccnc12)c1ccc(-c2cccc(Cl)c2)o1,inactive,
